The source gives no read counts; variants with many changes may rest on few reads.
B1: OR4K15 (parent)
chain: GUUAACGGUCAUAGGCCAUGGAAACUAGGAGCACCAUUUCGCUGCCAGUGAAGAAAUGAACAAAGAAAAUCUGGGCCAGGCAGGCAUCAAAAGAAAUAGUCUUGCGCUCAACCAGAAAGUCUGUAAUCAUUUUAAGGGUA

Variants of: B1
Assay: self-cleavage, relative activity (ratio to wild type); higher = more cleavage; in vitro, sequencing; the parent is a self-cleaving ribozyme

Variant	self-cleavage
GUUAACGGUCAUAGGCCAUGGGAACUAGGAGCACCAUUUCGCUGCCAGUGAAGAAAUGAACAAAGAAAAUCUGGGCCAGGCAGGCAACAAAAGAAAUAGUCUUGCGCUCAACCAGAAAGUCUGUAAUCAUUUUAAGGGCA [A22G U87A U139C]	1.59
GUUAACGGUCAUAGGCCAUGGGAACUAGGAGCACCAUUUCGCUGCCAGUGAAGAAAUGAACAAAGAAAAUCUGGGCCAGGCAGGCAUCAAAAGAAAUAGUCUCGCGCUCAACCAGAAAGUCCGCAAUCAUUUUAAGGGUA [A22G U103C U122C U124C]	0.78
GUUAACGGUCAUAGGCCAUGGGAACUAGGAGCACCAUUUCGCUGCCAGUGAAGAAAUGAACAAAGAAAAUCUGGGCCAGGCAGGCAUCAAAAGAAAUAGUCUUGCGCUCAACCAGAAAGUCUGUAAUCAUCUUAAGGUUA [A22G U131C G138U]	0.97
GUUAACGGUCAUAGGCCAUGGUAACUAGGGGCACCAUUUCGCUGCCAGUGAAGAAAUGAACAAAGAAAAUCUGGGCCAGGCAGGCAUCAAAAGAAAUAGUCUUGCGCUCAACCAGAAAGUCUGCAAUCAUUUUAAGGGUA [A22U A30G U124C]	0.89
GUUAACGGUCAUAGGCCAUGGGAACUAGGAGCACCAUUUCGCUGCCAGUGAAGAAAUGAACAAAGAAAAUCUGGGCCAGGCAGGCACCAAAAGGAAUAGUCUUGCGCUCAACCAGAAAGUCUGUAAUCAUUUUAAGGGUA [A22G U87C A94G]	1.38
GUUAACGGUCAUAGGCCAUGGGAACUAGGAGCACCAUUUCGCUGCCAGUGAAGAAAUGAACAAAGAAAAUCUGGGCCAGGCAGGCAUCAAAAGAAAUAGUCUCGCGCUCAACCAGAAAGUCUGUAAUCAUUUUAAAGGUA [A22G U103C G136A]	0.76
GUUAACGGUCAUAGGCCAUGGUAACUAGGGGCACCAUUUCGCUGCCAGUGAAGAAAUGAUCAAAGAAAAUCUGGGCCAGGCAGGCAUCAAAAGAAAUAGUCUUGCGCUCAACCAGAAAGUCUGUGAUCAUUUUAAGGGUU [A22U A30G A60U A125G A140U]	0.56
GUUAACGGUCAUAGGCCAUGGGAACUAGGAGCACCAUUUCGCUGCCAGUGAAGAAAUGAACAAAGAAAAUCUGGGCCAGGCAGGCAGCAAUAGAAAUAGUCUUGCGCUCAACCAGAAAGUCUGUAAUCAUUUUAAGGGUA [A22G U87G A91U]	0.48
GUUAACGGUCAUAGGCCAUGGUAACUGGGAGCACCAUUUCGCUGCCGGUGAAGAAAUGAACAAAGAAAAUCUGGGCCAGGCAGGCAUCAAAAGAAAUAGUCUUGCGCUCGACCAGAAAGUCUGUAAUCAUUUUAAGGGUA [A22U A27G A47G A110G]	0.27
GUUAACGGUCAUAGGCCAUGGGAACUAGGAGCACCAUUUCGCUGCCAGUGAAGAAAUGAACAAAGAAAAUCUGGGCCAGGCAGGCAUCAAAAGAAAUAGUCUUGCGCUCAACCAGAAAGUCUGUAACCAUUUUACGGGUA [A22G U127C A135C]	0.62
GUUAACGGUCAUAGGCCAUGGUUACUAGGAGCACCAUUUCGCUGCCAGUGAAGAAAUGAACAAAGGAAAUCUGGGCCAGGCAGGCAUCUAAAGAAAUAGUCUUGCGCUCAACCAGAAAGUCUGUAAUCAUUUUAAGGGUA [A22U A23U A66G A89U]	1.28
GUUAACGGUCAUAGGCCAUGGGAACUAGGAGCACCAUUUCGCUGCCAGUGAAGAAAUGAACAAAGAAAAUCUGGGCCAGGCAGGCAUCAAAAGAAAUAGUCUUGCGCUCAACCAGAAAGCCUGUAAUCAUUCUAAGGGUA [A22G U120C U132C]	1.04
GUUAACGGUCAUAGGCCAUGGGAACUAGGAGCACCAUUUCGCUGCCAGCGAAGAAAUGAACAAAGAAAAUCUGGGCCAGGCAGGCAUCAAAAGAAAUAGUCUUGCGCUCAACCGGAAAGUCUGUAAUCAUUUUGAGGGUA [A22G U49C A114G A134G]	0.3
GUUAACGGUCAUAGGCCAUGGGAACUAGGAGCACCAUUUCGCUGCCAGUGAAGAAAUGAACAAAGAAAACCUGGGCCAGGCAGGCACCAAAAGAAAUAGUCUUGCGCUCAACCAGAAAGUCUGUAAUCACUUUAAGGGUA [A22G U70C U87C U130C]	0.04
GUUAACGGUCAUAGGCCAUGGGAACUAGGAGCACCAUUUCGCUGCCAGUGAAGAAAUGAACAAAGAAAAUCUGGGCCAGGCAGGCAUCAAAAGAAAUAGUCUUGCGCUCAACCAGAAAGUCUGUAACCAUUUUAAGGGAA [A22G U127C U139A]	0.3
GUUAACGGUCAUAGGCCAUGGGAACUAGGAGCACCAUUUCGCUGCCAGUGAAGAAACGAACGAAGAAAAUCUGGGCCAGGCAGGCAUCAAAAGAAGUAGUCUUGCGCUCAACCUGAAAGUCUGUAAUCAUUUUAAGGGUA [A22G U57C A62G A96G A114U]	0.1
GUUAACGGUCAUAGGCCAUGGUGACUAGGAGCACCAUUUCGCUGCCAGUGAAGAAAUGAACAAAGAAAAUCAGGGCCAUGCAGGCAUCAAAAGAAAUAGACUUGCGCUCAACCAGUAAGUCCGUAAUCAUUUUAAGGGAA [A22U A23G U72A G79U U100A A116U U122C U139A]	0.01
GUUAACGGUCAUAGGCCAUGGGAACUAGGAGCACCAUUUCGCUGCCAGCGAAGAAAUGAACAAAGAAGAUCUGGGCCAGGCAGGCAUCAAAAGAAAUAGUCUAGCGCUCGACCAGAAAGUCUGUAAUCAUUUUAAGGGUA [A22G U49C A68G U103A A110G]	0.08
GUUAACGGUCAUAGGCCAUGGGAACUAGGAGCACCAUUUCGCUGCCAGUGAAGAAAAGAACAAAGAAAAUCUGGGCCAGGCAGGCGUCAAAAGAAAUAGUCUUGCGCUCAACCAGAAAGUCUGUAAUCAUUUUAAGGGUA [A22G U57A A86G]	0.9
GUUAACGGUCAUAGGCCAUGGUAACUAGGAGCGCCAUUUCGCUGCCAGUGAAGAAAUUAACAAAGAAAAUCUGGGCCAGGCAGGCAUCAAAAGAAGUAGUCUUGCGCUCAACCAGAAAGUCUGUAAUCAUUUUAAGGGUA [A22U A33G G58U A96G]	0.36
GUUAACGGUCAUAGGCCAUGGUAACUGGGAGCACCAUUUCGCUGCCAGUGAAGAAAUGAACAAAGAAAAUCUGGGCCAGGCAGGCAUCGAAAGAAAUAGUCUUGCGCUCAACCAGAAGGUCUGUAAUCAUUUUAAGGGUA [A22U A27G A89G A118G]	1.18

Variant	self-cleavage
GUUAACGGUCAUAGGCCAUGGUAACUUGGAGCACCAUUUCGCUGCCAGUGAAGAAAUGAACAAAGAAAAUCUGGGCCAGGCAGGCAUCAGAAGGAAUAGUCUUGCGCUCAACCAGAAAGUCUGUAAUCCUUUUAAGGGUA [A22U A27U A90G A94G A129C]	0.56
GUUAACGGUCAUAGGCCAUGGGAACUAGGAGCACCAUUUCGCUGCCAGUGAAGAAACGAACAAAGAAAAUCUGGGCCAGGCAGGCAUCAAAAGAAAUAGUCUAGUGCUCGACCAGAAAGUCUGAAAUCAUUCUAAGGGUA [A22G U57C U103A C105U A110G U124A U132C]	0
GUUAACGGUCAUAGGCCAUGGUGACUAGGAGCACCAUUUCGCUGCCAGUGAAGAAAUGUACAAAGAAAAUCUGGGCCAGGCAGGCAUCAAAAGAAAUAGUCUUGCGCUCAACCAGAAAGUCUGUAAUCAUUCUAAGGGUA [A22U A23G A59U U132C]	1.31
GUUAACGGUCAUAGGCCAUGGGAACUAGGAGCACCAUUUCGCUGCCAGCGAAGAAAUGAACAAAGAAAAUCUGGGCCAGGCAGGCAUCAGAAGAAAUAGUCUUGCGCUCAACCAGAAAGUCCGUAAUCAUUUUAAGGGUA [A22G U49C A90G U122C]	0.69
GUUAACGGUCAUAGGCCAUGGUACCUAGGAGCACCUUUUCGCUGCCAGUGAAGAAAUGAACAAAGAAAAUCUGGGCCAGGCAGGCAUCAAAAGAAAUAGUCUUGCGCUCAACCAGAAAGUCUGUAAUCAUUUUAAGGGUA [A22U A24C A36U]	1.1
GUUAACGGUCAUAGGCCAUGGGAACUAGGAGCACCAUUUCGCUGCCAGCGAAGGAAUGAACAAAGAUAAUCUGGGCCAGGCAGGCAUCAAAAGAAAUAGUCUUGCGCUCAACCAGAAAGUCUGUAAUCAUCUUAUGGGUA [A22G U49C A54G A67U U131C A135U]	0.61
GUUAACGGUCAUAGGCCAUGGGAACUAGGAGCACCAUUUCGCUGCCAGUGAAGAAAUGAACAAAGAAAAUCUGGGCCAGGCAGGCAUCAAAAGAAAUAGUCUUGCGCCCAACCAGAAAGUCUGUAAUCAUUUUGAGGGUA [A22G U108C A134G]	0
GUUAACGGUCAUAGGCCAUGGGAACUAGGAGCACCAUUUCGCUGCCAGUGAAGAAAUGAACAAAGAAAAUCUGGGCCAGGCAGGCAUCAAAAGAAAUAGUCUUGCGCCCAACCAGAAAGUCUGUUAUCAUUUUAAGGGUA [A22G U108C A125U]	0.01
GUUAACGGUCAUAGGCCAUGGGAACUAGGAGCACCAUUUCGCUGCCAGUGAAGAAACGAACAAAGAAAAUCUGGGCCAGGCAGGCAUCAAAAGGAAUAGUCUUGCGCUCAACCAGAAUGUCUGUAAUCAUUUUAAGGGUA [A22G U57C A94G A118U]	0.11
GUUAACGGUCAUAGGCCAUGGUGACUAGGAGCACCAUUUCGCUGCCAGCGAAGAAAUGAACAUAGAAAAUCUGGGCCAGGCAGGCAUCAAAAGUAAUAGUCUUGCGCUCAACCAGAAGGUCUGUAAUCAUUUUAAGGGUA [A22U A23G U49C A63U A94U A118G]	1.46
GUUAACGGUCAUAGGCCAUGGGAACUAGGAGCACCAUUUCGCUGCCAGUGAAGAAAUGAACAAAGAAAAUCUGGGCCAGGCAGGCAUCAAAAGAAAUAGCCUUGCGCUCAACCAGAAAGUCUGUAACCAUCUUAAGGGUA [A22G U100C U127C U131C]	0.71
GUUAACGGUCAUAGGCCAUGGUAACUAGGUGCACCAUUUCGCUGCCAGUGAAGAAAUGAACAAAGAGAACCUGGGCCAGGCAGGCAUCAAAAGUAAUAGUCUUGCGCUCAACCAGAAAGUCUGUAAUCAUUUUAAGGGUA [A22U A30U A67G U70C A94U]	0.49
GUUAACGGUCAUAGGCCAUGGGAACUAGGAGCACCAUUUCGCUGCCAGUGAAGAAAUGAACAAAGAAAAUCUGGGCCAGGCAGGCAUCAAAAGAAAUAGUCUUGCGCUCAACCAGAAAGUCUGAAAUCAUUUUAAGGGUG [A22G U124A A140G]	0.96
GUUAACGGUCAUAGGCCAUGGUAACUAGGAGCGCCAUUUCGCUGCCAGUGAAGAAAUGAACAAAGAAAAUCUGGGCCAGGCAGGCAUCAAAAGAAAUAGUCUUGCGCUCGACCAGAAAGUCUGUAAUCAUUUUAAGGGUA [A22U A33G A110G]	0.06
GUUAACGGUCAUAGGCCAUGGGAACUAGGAGCACCAUUUCGCUGCCAGUGAAGAAAUGAACAAAGAAAAUCUGGGCCAGGCAGGCAUCAAAAGAAAUAGCCUUGCGCUCGACCAGAAAGUCUGUAAUCAUUUUAAGGAUA [A22G U100C A110G G138A]	0.25
GUUAACGGUCAUAGGCCAUGGUGGCUAGGAGCACCAUUUCGCUGCCAGUGAAGAAAUGAACAAAGAAAGUCUGGGCCAGGCAGGCAUCAAAAGAAAUAGUCUUGCGCUCAACCAGAAAGUCUGUAAUCAUUUUAAGGGUA [A22U A23G A24G A69G]	1.18
GUUAACGGUCAUAGGCCAUGGGAACUAGGAGCACCAUUUCGCUGCCAGUGAAGAAAUGAACAAAGAAAAACUGGGCCAGGCAGGCAUCAAAAGAAGUAGUCUUGCGCUCAACCAGAAAGUCUGUAAUCAUUUUAAGGGUA [A22G U70A A96G]	0.51
GUUAACGGUCAUAGGCCAUGGGAACUAGGAGCACCAUUUCGCUGCCAGUGAAGAAAUGAACAAAGAAAAUCUGGGCCAGGCAGGCAUCAAAAGAAAUAGUCUUGCGCUCAACCAGAAAGUCCGUAAUCACUUUAAGGGUA [A22G U122C U130C]	0.55
GUUAACGGUCAUAGGCCAUGGUAACUAGGGGCACCGUUUCACUGCCAGUGAAGAAAUGAACAAAGAAAAUCUGGGCCAGGCAGGCAUCAAGAGAAAUAGUCUUGCGCUCAGCCAGGAAGUCUGUAAUCAUUUUAAGGGUA [A22U A30G A36G G41A A91G A111G A116G]	0.02
GUUAACGGUCAUAGGCCAUGGGAACUAGGAGCACCAUUUCGCUGCCAGCGAAGAAAUGAACAAAGAAAAUCUGGGCCAGGCAGGCAUCAAAAGAAAUAGUCAUGCGCUCAACCAGAAAGUCUGUAAUCAUUUUAAGGGUA [A22G U49C U102A]	0.5

From the RNAGym collection of RNA variant scans (doi:10.7554/elife.90254)
